In all, about 1,400 sequences were measured (“thermal melting temperature (Tm) of peptide-HLA complex”: median about 60, lowest 2% from about 45 on). This is one part of the list.
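Also: cell lysates heated 10 min at 37–73 °C, remaining pHLA pulled down with pan-class I antibody, peptides quantified by DIA-MS versus 37 °C, Tm where half the complex is lost.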

The experiment deals with HLA-B*07:02. The experiment can be described thus: thermal melting temperature (Tm) of peptide-HLA complex; higher = more thermostable pHLA complex. The following applies: C1R-B*07:02.
With RPRLTSNEKL, the thermal melting temperature came out at 56.7 °C.
Next, RPRPPTLL: 62.9 °C.
Next, SPRLSQTFL: 60.5 °C; SPILPITEF: 62.1 °C.
In turn, SPALPGLKL showed a thermal melting temperature of 62.1 °C.
Then VPAARSILAL, with 62.7 °C; and VPRQPTVTSV, with 58.6 °C.
Next, HPRTSITVV: 55.7 °C; SPGRLAVL: 58.8 °C; KPNPNQIISV: 57.5 °C.
Then SPRITFPSL, with 62.3 °C; and YPEPRVLTL, with 60 °C; and MPARWLTHL, with 55 °C.
In turn, YPFFRGVTI returned a thermal melting temperature of 61.8 °C.
Then VPYLRDLGL, with 63.1 °C; and NPRNFSDNQL, with 53 °C.
KPIQRTILM yielded a thermal melting temperature of 59.4 °C.
As to QPREPQVYTL, the thermal melting temperature came to 57.9 °C.
As for KPYQTMLVL, the thermal melting temperature was 61.6 °C.
The sequence RPSTPHTITL gave a thermal melting temperature of 59.3 °C.
The sequence WPHDTIGSL registered a thermal melting temperature of 62.1 °C.
Next, SPYPGLRLI: 61.8 °C; RPKPSSSPVIF: 60.6 °C; TARPQSSAL: 58 °C.
Sequence EPRPPHGEL gave a thermal melting temperature of 55.7 °C.
Then SPFQSSPLSL, with 61.5 °C.
Next, LPTLPRGLF: 60.6 °C; SPANTRYLFL: 62 °C.
Next, NPSKKYNIL: 59.8 °C; KPGPPQLSV: 57.7 °C; GPRLPWTRL: 57.9 °C.
With ITAPPSRVL, the thermal melting temperature stood at 58.4 °C.
Next, RPAPALAPA: 55.5 °C.
Next, APREHPFVL: 61 °C; SPFLPGFSQSL: 52.3 °C.
TPKKTTPIL registered a thermal melting temperature of 54.6 °C.
Then NPAENFRVL, with 56.1 °C; and SPAFSTRVL, with 60.3 °C.
KPRQQQDLVAF returned a thermal melting temperature of 53.5 °C.
Then RPTSTIWVSM, with 59.9 °C; and AANPNRFITL, with 61.1 °C.
GPAPVGRFF: the thermal melting temperature was 61.5 °C.
Next, KPNANRIALDF: 61.1 °C.
Next, NPEINKAVL: 46.1 °C; IPLLGKSSL: 61.9 °C.
LPSRKLVAL yielded a thermal melting temperature of 61.6 °C.
In turn, SPQGPGALF registered a thermal melting temperature of 62.5 °C.
Next, RPQIHGYDL: 59.9 °C; RPTLLWSL: 63.4 °C; LPSDLRTISL: 62.7 °C.
Then LPQYRLISI, with 61.3 °C; and QPRLMEPIYL, with 57.4 °C; and APSNPPAHL, with 53 °C.
Next, LIRPVSASF: 61 °C.
In turn, SPRSSDLVKL returned a thermal melting temperature of 57.6 °C.
Then RPAQTTVLI, with 52.9 °C.

The values are drawn from the supplement of paper PMC7726561.
